In publication PMC12136788:
The other results are listed elsewhere or left out.

T1: UNK ZnF1-6 (called full-length) (human, UniProt Q9C0B0 30-357)
T1 sequence: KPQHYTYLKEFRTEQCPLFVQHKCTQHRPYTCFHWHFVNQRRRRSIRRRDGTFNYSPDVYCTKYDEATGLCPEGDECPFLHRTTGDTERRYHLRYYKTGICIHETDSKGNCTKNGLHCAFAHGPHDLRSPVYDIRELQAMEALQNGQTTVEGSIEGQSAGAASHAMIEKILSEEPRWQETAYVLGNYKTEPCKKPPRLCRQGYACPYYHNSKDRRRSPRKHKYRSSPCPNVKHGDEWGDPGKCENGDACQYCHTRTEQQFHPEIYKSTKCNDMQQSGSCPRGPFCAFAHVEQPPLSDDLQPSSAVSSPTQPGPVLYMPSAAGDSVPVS

B1: chr17:75064992:75065093:+|3pUTR|ENSG00000180901|msi1|total|mutant (ssRNA)
RNA: GGGAGUUCUACAGUCCGACGAUCAGGCGCUUGUCCCUGUCUGCUUUCCUGGGGCAUGCCUGAUCAGCGUGGGCUGGAGCUCCCCGACCAACCCCAGCUUUCUCACCAGGUUCAGCAAGGAGGCCUGGGGGUCAGACACCAAUGCAACAGAGGAUUGAGCAUCA
B2: chr12:68660398:68660499:+|3pUTR|ENSG00000127314|msi1|FALSE|unique (ssRNA)
RNA: GGGAGUUCUACAGUCCGACGAUCUUGAGGUGGCCAAAUGUAAACUAAAAGCCUUAAUUAAAGUGGUGCAAUUUUGUAUAACUUAGCAUCAGUAGUUCAAUAAAUUUGGAUUGCCAUGCAAGGGCUUGCAUUAUAAUUACUUGCCAACAGAGGAUUGAGCAUCA
B3: chr5:136976780:136976881:-|3pUTR|ENSG00000152377|msi1|FALSE|unique (ssRNA)
RNA: GGGAGUUCUACAGUCCGACGAUCCUUAAAUUAGCAUGUUCCAAUCCAGUCGGCAUUGCCUGAAUACAGUAGCAUCAUACCUAUAGUUGGUCUUAGAUAAGAAAUGAACUACUUGAUAUAGCAAAGUCCUUUGGCUUCGUAAAUCAACAGAGGAUUGAGCAUCA
B4: chr8:76866408:76866523:+|3pUTR|ENSG00000091656|unk|total|mutant (ssRNA)
RNA: GGGAGUUCUACAGUCCGACGAUCUAUUCUAUACAUUUUAUGUGAACUUUUUUAAUGUCUUUAAUUUGGAUUUUUUUUUUUUUCCGUAUUUUAACAUUUAUUUUAAUCCUGAAGACACUUUUUUGAUUGUGUUUCGUAAGAGACCAACAGAGGAUUGAGCAUCA
B5: chr1:207898972:207899226:-|CDS|ENSG00000174059|control|control|control (ssRNA)
RNA: GGGAGUUCUACAGUCCGACGAUCACAACCUUGAAGCCUAGCCUGUCACCUGGAAAUGUUUCAGACCUUUCAACCACUAGCACUAGCCUUGCAACAUCUCCCACUAAACCCUAUACAUCAUCUUCUCCUAUCCUAAGUGACAUCCAACAGAGGAUUGAGCAUCA
B6: ENSG00000105953:stop:overlap|stop_codon|ENSG00000105953|stop_codon|NA|stop_codon (ssRNA)
RNA: GGGAGUUCUACAGUCCGACGAUCCGGAGCUGCAGCGCCUCCUGGACACGGCCUUCGACCUGGACGUCUUCAAGAACUUCUCGUAGAUGCUGCCUAGGGUUGCUUGGGCCACUGCCCUCUCCACACCCAUGACUGCCCCUUGCUCAACAGAGGAUUGAGCAUCA
B7: ENSG00000198589:be:win_6051|CDS|ENSG00000198589|bound_else_gene|NA|bound_elsewhere_windowed (ssRNA)
RNA: GGGAGUUCUACAGUCCGACGAUCAGAUGAAGAUAUCCUUGCUAAAGGAAAACAGUCCAUCAGGAGUCAGGCUUUAGGAAAUCAGAACUCAGAAAACGAGAUCCUCCUGGAAGGCGAUGAUGAUACUCUGUCAUCCGUGGAUGACAACAGAGGAUUGAGCAUCA
B8: chr1:32195301:32195402:+|3pUTR|ENSG00000084652|msi1|FALSE|unique (ssRNA)
RNA: GGGAGUUCUACAGUCCGACGAUCUGACCUGGCUGGCAUCUGGCACUUGCAAUUUUGGAUUUUGUGGGUCAGUUUUACGUACAUAGGGCAUUUUGCAAGGCCUUGCAAAUGCAUUUAUACCUGUAAGUGUACAGUGGGCUUGCACAACAGAGGAUUGAGCAUCA
B9: ENSG00000107863:be:win_4851|CDS|ENSG00000107863|bound_else_gene|NA|bound_elsewhere_windowed (ssRNA)
RNA: GGGAGUUCUACAGUCCGACGAUCCGAGGCAGAUGACGAGAGAAGCGAACUCAUCAGUGAAGGGCGGCCUGUGGAAACCGACAGCGAGAGCGAGUUUCCCGUGUUCCCCACAGCCUUGACUUCAGAGAGGCUUUUCCGAGGAAACAACAGAGGAUUGAGCAUCA
B10: ENSG00000124766:be:win_1051|CDS|ENSG00000124766|bound_else_gene|NA|bound_elsewhere_windowed (ssRNA)
RNA: GGGAGUUCUACAGUCCGACGAUCGCCGGCCGCUCGCCCGCCGACCACCGCGGCUACGCCAGCCUGCGCGCCGCCUCGCCCGCCCCGUCCAGCGCGCCCUCGCACGCGUCCUCCUCGGCCUCGUCCCACUCCUCCUCUUCCUCCCAACAGAGGAUUGAGCAUCA
B11: chr3:45835589:45835784:-|CDS|ENSG00000163818|control|control|control (ssRNA)
RNA: GGGAGUUCUACAGUCCGACGAUCGACACCUUCACCAUAGAUGAAGUCUCUGAAGUCCUCAAUGGAUUACAAGCUGUGGUUCAUAGUGAGGUGGAAUCUGAGCUCAUCAACACUGCCUAUACCAAUGUGUUACUUCUGCGACAGCAACAGAGGAUUGAGCAUCA
B12: chr6:125889563:125889680:+|CDS|ENSG00000111912|unk|total|mutant (ssRNA)
RNA: GGGAGUUCUACAGUCCGACGAUCCAAGCAGUCUGGUUCGCCAGAAAGCCGAGCCGAAAACACACUGAACAUACAUGAAGAUUCCGAUAAAGUUAAACUCAUUGAAUAUUACCUGACUAAGAACAAAGAAGGGCCACAGGUAUCCAACAGAGGAUUGAGCAUCA
B13: chr4:168927217:168927233:+|3pUTR|ENSG00000129116|msi1_unk|total|mutant (ssRNA)
RNA: GGGAGUUCUACAGUCCGACGAUCAACCACCCAAAUGACCAAGGCAUAUACCGUAUUUGGAGGAAUCAGGGGUUUGGAAGGAGCCGGGAGGAGAAUGAAGGAAAAUGCAACCAGCAUGAUUACCGUGUGUUCAUUCCGAUAAAACAACAGAGGAUUGAGCAUCA
B14: chr17:142788:147440:-|three_prime_utr|ENSG00000272636|control|control|control (ssRNA)
RNA: GGGAGUUCUACAGUCCGACGAUCGAGACCUCAGCACCUGCCCAGGGGAAGGGGACACGCCCAUCUGGGAGCAAAGACCCUUCUAGAGGCCAGCCCCGGCUGAGAGGACAGGAGUGUGGGGGCGCCUUGGCGGACAGUGGGAACCAACAGAGGAUUGAGCAUCA
B15: ENSG00000136451:be:win_1801|3pUTR|ENSG00000136451|bound_else_gene|NA|bound_elsewhere_windowed (ssRNA)
RNA: GGGAGUUCUACAGUCCGACGAUCGCUUAAACAGGAUAGUAGUUGGCAAGAUGAAAUGCCAGAAUUAAAACCAAUCAUAAGUAGAACCCACUUCAAAAUAAAAAAACAGCAUUACUAUUUCUAAUCCCAAGGAAUCACUUUAUUCAACAGAGGAUUGAGCAUCA
B16: chr15:19964665:19964972:-|CDS|ENSG00000188403|control|control|control (ssRNA)
RNA: GGGAGUUCUACAGUCCGACGAUCAUGCACUGGGUGUGCCAGGCCCAUGCACAAGGGCUUGAGUGGAUGGGAUUGGUGUGCCCUAGUGAUGGCAGCACAAGCUAUGCACAGAAGUUCCAGGGCAGAGUCACCAUAACCAGGGACCAACAGAGGAUUGAGCAUCA
B17: chr4:168926953:168927063:+|3pUTR|ENSG00000129116|msi1_unk|FALSE|overlapping (ssRNA)
RNA: GGGAGUUCUACAGUCCGACGAUCCAAAAGAGUUUUCUAACAAGGUUAAUACCUUAGUUCUUAACAUUUUUUUUCUUUAUGUGUAGUGUUUUCAUGCUACCUUGGUAGGAAACUUAUUUACAAACCAUAUUAAAAGGCUAAUUUCAACAGAGGAUUGAGCAUCA
B18: chr3:44446857:44446958:-|CDS|ENSG00000185219|msi1|FALSE|unique (ssRNA)
RNA: GGGAGUUCUACAGUCCGACGAUCGGGAGACAUACCCUUUCCAGUCACCAGAGGAAACACACCAGAGCAGCACAGGCUGAACGUAGCCCGCCUGCACGGUCUUCCUCUCAGGACACAAAGUUGAGAUUACAGAAGCUAAAACCACAACAGAGGAUUGAGCAUCA
B19: chr2:227556236:227556337:+|3pUTR|ENSG00000173744|msi1|FALSE|bound_elsewhere (ssRNA)
RNA: GGGAGUUCUACAGUCCGACGAUCUGUUGAAUGCCUUUUUGCAAUGAUGACUGAGUUGUUAUCAUAGUAUUUUAAAACCUGUAUAGUGUUUUAGACUUGUUAAAACAUUGCUGUCUAGUGUACAUCUAGCUAAAAGUGUGGUUUCAACAGAGGAUUGAGCAUCA
B20: chr15:60490033:60490134:-|3pUTR|ENSG00000069667|unk|FALSE|unique (ssRNA)
RNA: GGGAGUUCUACAGUCCGACGAUCUGCUGGAUUUGGGACAUGCUUUUCUCUUUAAAUACAUAAUAUCAUUAUAUAAAUUAUUCUAGAGUGUAUUUAAUUAGGAUAAAAUUACUUCCUUAGUAUGGAUAUUUGACAUCUAUAGGGCAACAGAGGAUUGAGCAUCA
B21: chr2:96185838:96185916:-|3pUTR|ENSG00000084090|msi1_unk|FALSE|overlapping (ssRNA)
RNA: GGGAGUUCUACAGUCCGACGAUCUGGGAGACUAAUCCUUUUAGAUAGUAGCUUUUUGAUGCUCAAAACAUCACAUUUAAAUUUAGUUUAAAAAUUUUUUAACUUUUGUGUCAAAUAGGAGUUGAGGAAUUGAGCAGGAUUCUACAACAGAGGAUUGAGCAUCA
B22: chr1:113797602:113797710:-|CDS|ENSG00000081019|unk|total|mutant (ssRNA)
RNA: GGGAGUUCUACAGUCCGACGAUCUUUAUGACUCACCAGGAACAUUCUAUUCGCCGAAAUUUCUUAAAAACAGGUACUAAAUUCCGCAACUUUAUUCAUGAGGAACACCAGUCCAAUGGUGGUGCUCUUGUCCUUCAUGCUUACCAACAGAGGAUUGAGCAUCA

Biological target: T1, UNK ZnF1-6 (called full-length)
Experiment: nsRBNS (natural sequence RNA bind-n-seq); RBNS binding buffer (assumed for nsRBNS): 25 mM Tris pH 7.5, 150 mM KCl, 3 mM MgCl2, 0.01% Triton X-100, 500 ug/ml BSA, 20 U/ml SUPERase-In, 4 C; UNK is unkempt and MSI1 is Musashi-1; names of the RNAs are library labels; protein concentration not given here; high values mean tight binding

Row | Binder | binding signal [enrichment R]
1 | B1 | 0.68
2 | B2 | 0.685
3 | B3 | 8.89
4 | B4 | 1.98
5 | B5 | 2.45
6 | B6 | 0.44
7 | B7 | 0.373
8 | B8 | 0.635
9 | B9 | 0.655
10 | B10 | 4.38
11 | B11 | 0.413
12 | B12 | 0.574
13 | B13 | 0.58
14 | B14 | 0.805
15 | B15 | 2.09
16 | B16 | 0.962
17 | B17 | 20.1
18 | B18 | 0.462
19 | B19 | 0.596
20 | B20 | 4.69
21 | B21 | 27.5
22 | B22 | 0.205
